In PubChem BioAssay AID1461 (National Center for Advancing Translational Sciences (NCATS), 2008):
In all, about 220,000 compounds went through this assay and about 2,300 (1%) were called active. This list was built around the results that the source calls inconclusive (neither active nor inactive); the mix of calls is not that of the screen. Calls come from the whole dose curve; as a rule, active = well fitted inhibition curve with a large enough effect; inconclusive = small, poorly fitted or top-dose-only effect, or effect the other way; inactive = no such curve, though single readings can be large or run the other way. No potency is given beside an inconclusive call; the fits are too rough.

biological target: Neuropeptide S receptor (Homo sapiens) (UniProt Q6W5P4); assay: qHTS Assay for Antagonists of the Neuropeptide S Receptor: cAMP Signal Transduction; settings: CHO-NPSR cells, cAMP TR-FRET, antagonist mode; series mostly up to 38.3 µM; note: nearly all actives have a fitted effect of over 50% in size
Excerpt: NIH Chemical Genomics Center [NCGC] NIH Molecular Libraries Probe Production centers Network [MLPCN] MLPCN Grant: X01-DA026210-01 Assay Submitter (PI): Heilig, Markus Alexander NCGC Assay Overview: Neuropeptide S receptor (NPSR), previously known as GPR154, is a recently de-orphanized G protein coupled receptor. Its endogenous ligand is the 20 amino acids peptide Neuropeptide S (NPS). […] NPS and its receptor are found in various tissues. Specifically they are highly expressed in brain areas that have been implicated in modulation of arousal, stress and anxiety. Central administration of NPS in mice produces an unusual profile of activity by inducing wakefulness and arousal, while at the same time suppressing anxiety. Therefore, NPSR may represent a novel drug target for the treatment of sleep and anxiety disorders. To identify NPSR antagonists, we developed a cell-based cAMP assay. NPS can stimulate the production of cAMP in Chinese hamster ovary cells stably expressing NPS receptor. This change in intracellular cAMP level can be detected by a homogeneous LANCE cAMP assay based on the TR-FRET (time resolved fluorescence resonance energy transfer) between a europium-labeled cAMP tracer complex and a cAMP-specific antibody labeled with Alexa Fluor 647. The europium-labeled cAMP tracer complex is formed by the tight interaction between Biotin-cAMP (b-cAMP) and streptavidin labeled with Europium-W8044 chelate (Eu-SA). Light pulse at 320 nm excites the europium of the cAMP tracer and the energy emitted is transferred to the Alexa molecule bound to the cAMP antibody, generating a TR-FRET signal at 665 nm. Residual energy from the europium will produce a light at 620 nm. The native unlabeled cAMP from cell lysates competes with the europium-cAMP tracer for antibody binding and reversely reduces the emission signal of Alexa by interrupting FRET between the two labeled molecules. Both emission signals from the FRET donor (620 nm) and the acceptor (665 nm) can be detected by a plate reader in the TRF mode. Expression of result in fluorescence ratio (665 nm/620 nm) helps to normalize differences due to cell density and reagent dispensing. This assay was successfully optimized to a 1536-well plate format.
NCGC Assay Protocol Summary: A Chinese hamster ovary (CHO) cell line stably expressing the NPS receptor (CHO-NPSR) was obtained from Dr. Heilig lab at NIAAA and maintained in F-12 Kaighn's media (Invitrogen, Carlsbad, CA, 21127) supplemented with 10 % FBS, 100 units/ml penicillin, 100 ug/ml streptomycin and 250 ug/ml geneticin at 37C, 5% CO2 in a humidified atmosphere. Before the assay, aliquots of cells were frozen and stored at -135C. The assay was performed in 1536-well format. Data are reported for both the ratio of the two emission wavelengths, and also for the component 'donor' channel, Em2=620. Data were normalized to the controls for basal activity (DMSO only) and 100% inhibition (No NPS control). IC50 values were determined from concentration-response data modeled with the standard Hill equation. NPS 1536-well assay protocol: (1) Fresh or frozen CHO-NPSR cells were suspended in F-12 Kaighn's media supplemented with 10 % FBS, 100 units/ml penicillin and 100 ug/ml streptomycin. Cells were plated at 4 ul/well (1200 cells) to white, tissue culture treated 1536-well plates, and then cultured at 37C, 5 % CO2 for 16 to 30 hours. (2) Add 23 nl/well of compound in DMSO solution. The final titration for each compound was between 0.6 nM and 46 uM. (3) Add 1 ul of stimulation reagent (1X HBSS buffer, 5 mM HEPES, 0.1% BSA, 500 uM RO-201724 (Sigma-Aldrich, B8279), 1.5% Alexa 647-labeled anti-cAMP antibody (from Perkin Elmer), 100 nM NPS) (4) Incubation at 37C, 5 % CO2 for 60 min. (5) Add 1 ul/well detection reagent. Detection reagent was prepared by adding biotin labeled cAMP (4%), streptavidin labeled with Europium-W8044 chelate (1.33%) and TritonX-100 (1%) to detection buffer. […]
Potency is the fitted concentration of half-maximal effect; tags give direction and shape of the fitted curve.

Sequence of UniProt Q6W5P4 (Q6W5P4 whole entry, looked up): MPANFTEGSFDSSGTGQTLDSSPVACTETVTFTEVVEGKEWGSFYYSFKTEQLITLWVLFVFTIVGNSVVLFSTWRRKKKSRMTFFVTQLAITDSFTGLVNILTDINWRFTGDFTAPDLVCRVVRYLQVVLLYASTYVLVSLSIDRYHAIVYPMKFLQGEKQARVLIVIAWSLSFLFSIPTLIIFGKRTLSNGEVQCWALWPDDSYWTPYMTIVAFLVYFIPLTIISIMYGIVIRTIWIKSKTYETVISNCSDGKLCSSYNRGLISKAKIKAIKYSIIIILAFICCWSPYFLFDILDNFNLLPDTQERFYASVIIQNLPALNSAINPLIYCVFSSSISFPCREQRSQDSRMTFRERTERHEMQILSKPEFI

| Structure (SMILES) | Potency |
| --- | --- |
| O=C(O)c1ccc2oc(SCC(=O)N3CCCCC3)nc2c1 | inactive |
| CCN(CC)c1ccc(C2Nc3cccc4cccc(c34)N2)c(O)c1 | inconclusive [inhibitor, full curve, poor fit] |
| CC(=O)O[C@H]1C[C@@]2(C)[C@@H](C[C@@H](O)[C@H]3[C@@]4(C)CC[C@@H](O)[C@@H](C)C4CC[C@@]32C)/C1=C(\CCC=C(C)C)C(=O)O (some centres not stated) | inconclusive [inhibitor, single point] |
| Cc1cccc(NC(=S)NCc2cccs2)c1C | inconclusive [inhibitor, partial curve] |
| O=C(O)C1CC=CCC1C(=O)Nc1ccc(S(=O)(=O)N2CCCc3ccccc32)cc1 (configuration not stated) | inactive |
| Cn1cc(CCNC(=O)CC2C(=O)NCCN2Cc2cccc(Oc3ccccc3)c2)cn1 (configuration not stated) | inactive |
| CCOC(=O)C(=CNc1ccc(C(F)(F)F)cc1)C(=O)OCC | inconclusive [activator, single point] |
| CCOC(=O)N1CCC(NC(=O)c2ccc3c(c2)N(Cc2ccccc2)CCS3)CC1 | inconclusive [inhibitor, partial curve] |
| c1ccc(Cn2nnc3c(N4CCc5ccccc5C4)ncnc32)cc1 | inconclusive [inhibitor, single point] |
| CCCCC(C(=O)N/N=C/c1ccccn1)C(=O)N/N=C/c1ccccn1 | inactive |
| CCCC(c1nnnn1Cc1ccc(OC)cc1)N1CCN(c2ccccc2OC)CC1 (configuration not stated) | inconclusive [inhibitor, single point] |
| O=C1OC(OC2CCCCC2)(c2ccccc2)c2ccccc21 (configuration not stated) | inconclusive [inhibitor, partial curve, poor fit] |
| CCOc1ccc2nc(SC3CC(=O)N(c4ccc(OC)cc4OC)C3=O)sc2c1 (configuration not stated) | inactive |
| CCOc1ccc(C(CCc2ccccc2)NC(=O)c2ccc(OC)c(OC)c2)cc1OCC (configuration not stated) | inconclusive [inhibitor, partial curve] |
| Cc1[nH]c2ccccc2c1SCc1n[nH]c(=S)n1C | inactive |
| Cc1cccc2sc(NC(=O)CSCc3ccccc3)nc12 | inconclusive [inhibitor, single point] |
| CCOC(=O)C1CCCN(C(=O)c2ccccc2SCCOC)C1 (configuration not stated) | inconclusive [inhibitor, full curve, poor fit] |
| FC(F)(F)c1ccc(C2[C@H]3CN(Cc4cccnc4)[C@H](c4ccccc4)C34CC2(c2cccnc2)C4)cc1 (some centres not stated) | inconclusive [inhibitor, single point] |
| COc1ccc(CCNC(=O)COC(=O)c2cnc(C)cn2)cc1OC | inactive |

| Structure (SMILES) | Potency |
| --- | --- |
| Cc1sc2ncnc(SCc3ccco3)c2c1C | inconclusive [inhibitor, single point] |
| COc1cc(OC)c(NC(=O)c2ccc(Br)o2)cc1Cl | inconclusive [inhibitor, partial curve] |
| COc1ccc(Cn2nnnc2C(CC(C)C)N2CCN(c3ccccc3)CC2)cc1 (configuration not stated) | inconclusive [inhibitor, partial curve] |
| CCCC(=O)NC(=S)Nc1ccc(Cl)cn1 | inactive |
| O=C1OC2(CCCCC2)OC(=O)C1=CNc1nccs1 | inactive |
| CCc1ccc2oc(=O)cc(CN3CCN(CCO)CC3)c2c1 | inconclusive [inhibitor, partial curve, poor fit] |
| CCN(CC)C(=O)c1sc2nc(N3CCOCC3)c3c(c2c1N)CCCC3 | inconclusive [activator, single point] |
| FC(F)(F)c1cccc(N2CCN(c3ccc4nnc(-c5ccccc5)n4n3)CC2)c1 | inconclusive [inhibitor, single point] |
| O=C1CC(c2ccccc2F)C2=C(COC2=O)N1 (configuration not stated) | inactive |
| COc1ccc(S(=O)(=O)N2CCOCC2)c(C)c1C | inconclusive [activator, single point] |
| COc1ccc(-c2nnc3n2N=C(C)CS3)cc1 | inactive |
| Cc1cc(C)nc(-n2nc(C)cc2Nc2ccccc2)n1 | inconclusive [inhibitor, partial curve, poor fit] |
| Cc1ccccc1N(CC(=O)O)S(C)(=O)=O | inactive |
| Cc1csc(NC(=O)c2c(O)c3cccc4c3n(c2=O)CCC4)n1 | inconclusive [inhibitor, single point] |
| CC(C)N1C(=O)C(O)(C2COC(C)(C)CC2=O)c2ccccc21 (configuration not stated) | inactive |
| CN(C)c1ccc(/C=C/C(=O)c2ccc(O)cc2)cc1[N+](=O)[O-] | inconclusive [activator, single point] |
| COc1cccc(OCCn2c(C)c(/C=N/n3cnnc3)c3ccccc32)c1 | inconclusive [activator, single point] |
| NC(=O)CSc1nnc2ccc(-c3ccc(Cl)cc3)nn12 | inconclusive [activator, partial curve] |
